We go through 56 compounds from ChEMBL document CHEMBL1201862, “PubChem BioAssay data set” (2004).

Values joined by “and” are separate entries in the source; they are usually repeats but may differ in a detail not shown here. Identical values can stand only once.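 Tested at 5 concentrations; 48 h exposure; 96-well plates; endpoints linearly interpolated, else capped at highest concentration. GI50 = concentration required for 50% inhibition of growth.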 Active and inactive are the calls of the source. No stated cut-off is given here; in the data, active = GI50 up to about 1.1 µM and inactive = higher.

This test has as its system NCI-H322M. Briefly: NCI tumour cell line growth inhibition, 48 h.
Take `CC(=O)c1cnc2oc3ccc(O)cc3c2c1-c1ccccc1`: the GI50 was inactive: 34.3 µM. Consider `O=C(NCc1ccccc1)c1c(O)nc2ccccc2c1O`, for which the GI50 was inactive: > 100 µM.

Turning to `CCOC(=O)c1c(C)n(CCN2CCN(C)CC2)c2ccc(OC)cc12`, the GI50 is inactive: 55.6 µM. The result for `O=C(/C=C/c1ccc(Cl)c(Cl)c1)c1ccc2ccccc2c1` reads inactive: > 100 µM.

`COc1ccc(C2Oc3c(OC)cc(CCCO)cc3C2CO)cc1OC` (stereo unspecified): the GI50 was inactive: > 100 µM and inactive: 51.8 µM.

For the compound `COc1ccc2c3c([nH]c2c1[N+](=O)[O-])C(C)N(Cc1ccccc1)CC3` (stereo unspecified), the GI50 is inactive: > 100 µM. The figure for `COC(=O)Nc1nc2cc(NS(=O)(=O)c3ccc(F)cc3)ccc2[nH]1` is inactive: 34.4 µM.

For the compound `C1CNOCCCONCCCNOCCCONC1`, the GI50 is inactive: > 100 µM. On to `COc1ccc2c(c1C)C(=O)C(O)(CC=C(C)C)O2` (stereo unspecified), for which the GI50 is inactive: > 100 µM. Consider `CO/C(=N\N=C\c1ccccc1F)c1ccncc1`, for which the GI50 was inactive: > 10 µM.

`O=C(c1ccc(Cl)cc1)c1ccc(OCCCCCCCCCCOc2ccc(C(=O)c3ccc(Cl)cc3)cc2)cc1`: the GI50 is inactive: > 100 µM. As to `COc1cc2ccn3c4cc(OC)c(OC)cc4cc3c2cc1OC`, the GI50 was inactive: > 100 µM. As to `COc1cc(C2SCC(=O)N2c2ccc(Cl)cc2)cc(OC)c1OC` (stereo unspecified), the GI50 is inactive: 16.6 µM. For `N#CC(NNC(=O)c1c(Cl)c(Cl)c(Cl)c(Cl)c1-c1nc2cc(C(=O)c3ccccc3)ccc2[nH]1)c1cccc(Oc2ccccc2)c1` (stereo unspecified), the GI50 is inactive: 22.5 µM. On to `Cc1cccc(C(C)C)c1NC(=O)CC1Sc2ccccc2NC1=O` (stereo unspecified), for which the GI50 was inactive: > 100 µM.

Consider `CCCCC/C(=N\c1[nH]nnc1C(N)=O)OCC`, for which the GI50 is inactive: > 100 µM. The result for `COc1cc([C@H]2c3cc4c(cc3[C@H](NCc3ccc([N+](=O)[O-])cc3)C3COC(=O)[C@H]32)OCO4)cc(OC)c1O` (stereo partly specified) reads inactive: 7.94 µM; that for `O=C(O)Cc1ccc2c(c1)/C(=C1/Nc3ccccc3C1=O)C(=O)N2`, inactive: 24.4 µM; that for `COc1ccccc1NC1=NCC(C)S1` (stereo unspecified), inactive: > 100 µM. As to `O=C(/C=C/c1ccc(O)c([N+](=O)[O-])c1)CC(=O)/C=C/c1ccc(O)c([N+](=O)[O-])c1`, the GI50 is inactive: 40.9 µM. As for `CCOC(=O)C1(C(=O)OCC)Nc2cccnc2N(C)N1`, the GI50 was inactive: > 100 µM. The result for `Cc1cc(NS(=O)(=O)c2ccc(NC(=O)c3ccc4nc5ccccc5c(Nc5ccc(S(=O)(=O)Nc6cc(C)on6)cc5)c4c3)cc2)no1` reads inactive: > 50 µM; that for `CSC1(Cc2ccccn2)C(=O)Nc2cccc([N+](=O)[O-])c21` (stereo unspecified), inactive: > 100 µM; that for `COc1ccc(/C(Cl)=C(\C=N/O)c2ccc(OC)c(OC)c2)cc1OC`, inactive: > 100 µM. Consider `Cc1ccc(Cc2nn(C)c(=O)n2N)cc1`, for which the GI50 is inactive: > 100 µM. The result for `COc1ccc([N+](=O)[O-])c2c(NCCCN(C)C)c3ccccc3nc12` reads active: 0.437 µM; that for `COC(=O)CCc1cc(OC)c2c(c1)[C@H](C(=O)OC)[C@@H](c1ccc(O)c(OC)c1)O2`, inactive: > 100 µM.

On to `COc1cc(/C=C2\N=C(c3ccccc3)N(/N=C3\C(=O)Nc4ccccc43)C2=O)cc(OC)c1OC`, for which the GI50 is inactive: > 100 µM. The result for `COC(=O)CN(CC(=O)NCCNC(=O)OC(C)(C)C)C1CCCCC1N(CC(=O)OC)CC(=O)OC` (stereo unspecified) reads inactive: > 100 µM; that for `CCCCC#CS(=O)(=O)C(F)(F)F`, inactive: > 100 µM. The result for `COc1cccc2c1C(=O)c1c(O)c3c(c(O)c1C2=O)CC(O)(C(C)=O)CC3OC1CC([N+](C)(C)C)C(O)C(C)O1` (stereo unspecified) reads inactive: > 100 µM. The result for `O=C(/C=C/c1c(O)ccc2ccccc12)c1ccc([N+](=O)[O-])cc1` reads inactive: > 57.8 µM; that for `O=c1[nH]c(=O)n(C2CC(O)C(CO)O2)cc1/N=N/NCCc1ccccc1` (stereo unspecified), active: < 0.01 µM. For `O=C(Nn1c(-c2ccccc2)nc2ccccc2c1=O)c1ccc(Cl)cc1`, the GI50 was inactive: > 100 µM.

Regarding `O=C(Cn1c(C(=O)/C=C/c2ccc(Cl)c(Cl)c2)nc2ccccc21)c1ccccc1`, the GI50 is inactive: 17.2 µM.

As for `COc1ccc(NC(C(N)=O)c2cc3cc(Br)ccc3nc2Cl)cc1` (stereo unspecified), the GI50 is inactive: > 100 µM.

On to `C=C/C=C(\NC(=O)C(Cl)(Cl)Cl)[Si](C)(C)C`, for which the GI50 was inactive: > 100 µM. The result for `COc1ccc(/N=N/c2ccc3oc(=O)c(C(=O)Nc4ccccc4C)cc3c2)cc1` reads inactive: > 10 µM. The result for `CC1(C)N=C(N)N=C(N)N1c1ccc(CCc2ccccc2)cc1` reads inactive: 1.96 µM. With `Cc1cn([C@@H]2C[C@H](CO)[C@@H]2O)c(=O)[nH]c1=O`, the GI50 is inactive: > 100 µM.

Consider `CC(=O)NC(CCCOC(C)=O)C(=O)NC(CCCOC(C)=O)C(=O)NC(CCCOC(C)=O)C(=O)NC(Cc1ccc([N+](=O)[O-])cc1)C(=O)NCC(=O)OCc1ccccc1` (stereo unspecified), for which the GI50 is inactive: > 100 µM. The figure for `CC[C@]1(Cc2ccc(OC)c(OC)c2)[C@@H]2C[C@@H](C(=O)OC)ON2O[C@H](OC2CCCC2(c2ccccc2)c2ccccc2)[C@@H]1OC(C)=O` (stereo partly specified) is inactive: > 100 µM; for `CC(=O)Nc1ccc(/C=C/C(=O)c2sc(-c3cccnc3)nc2C)cc1` it is inactive: > 100 µM; for `Cc1nnc2n1N=C(c1ccc(-c3ccc([N+](=O)[O-])cc3)o1)CS2` it is inactive: > 100 µM.

`COc1cc(/C=C/C(=O)CC(=O)/C=C/c2cc(C)c(O)c(OC)c2)cc(C)c1O`: the GI50 was inactive: > 100 µM.

Consider `C=CC[C@H](C[C@H](C[C@H](C[C@H](C[C@H](C[C@H](C[C@H](C[C@H](C[C@H](C[C@H](CCCCC)OC)OC)OC)OC)OC)OC)OC)OC)OC)OC`, for which the GI50 was inactive: > 100 µM. The figure for `C=CC1(C)CCC(C(C)C(=O)C(C=C(C)C)OC(C)=O)C12C(=O)Oc1ccccc1C2=O` (stereo unspecified) is inactive: > 100 µM. The figure for `COC1(C)Cc2c(c(C)c(O)c3c2C(=O)C=C(Cl)C3=O)O1` (stereo unspecified) is inactive: > 100 µM; for `Cc1ccc(-c2c(C#N)c(S)n(NS(=O)(=O)c3ccccc3)c(=O)c2C#N)cc1` it is inactive: 89.7 µM; for `CCc1n[nH]c(=O)[nH]1` it is inactive: > 100 µM. The figure for `COCN1COCN(C)C1=O` is inactive: > 100 µM; for `COc1ccc(-n2c(C)nc3ccc(NC4OC(CO)C(O)C(O)C4O)cc3c2=O)cc1` (stereo unspecified) it is inactive: > 100 µM. On to `CCCCCCCCCC[C@@H](O)[C@@H]1CC[C@@H]([C@@H]2CC[C@@H]([C@@H](O)CCCCCCCCCC[C@H](O)CC3=CC(C)OC3=O)O2)O1` (stereo partly specified), for which the GI50 was inactive: 3.21 µM. The result for `CN(C)c1ccc(-c2cc(O)c3cc4c(cc3n2)OCO4)cc1` reads inactive: > 100 µM; that for `Cc1cccc(-c2cc(O)c3cccnc3n2)c1`, active: 0.524 µM. The figure for `CC(=O)OC(C)(C)/C=C/C(=O)[C@](C)(O)[C@H]1[C@H](O)C[C@@]2(C)[C@@H]3CC=C4[C@@H](C[C@H](O)C(=O)C4(C)C)[C@]3(C)C(=O)C[C@]12C` is active: 0.241 µM.
